From patent publication US7884103B2 (priority 2003, dated 2011) come the findings set out here.

Read-outs that look alike come from different tables or passages of the source.

One may read the inhibition as how much of the control response was suppressed.

Common to all, as to experiment: whole plant or invertebrate
Assay [1] relates to Phytophthora on tomato plants. To be noted: read-out: inhibition of fungal infestation. As to the method:
(§1) D-2: Action Against Phytophthora on Tomato Plants
a) Residual-protective action
After a cultivation period of 3 weeks, tomato plants are sprayed with a spray mixture (0.02% active ingredient) prepared from a wettable powder formulation of the test compound. After 48 hours, the treated plants are infected with a sporangia suspension of the fungus. Fungus infestation is evaluated after incubation of the infected plants for 5 days at 90-100% relative humidity and +20° C.

Assay [2] deals with Phytophthora on tomato plants. Conditions: soil, read-out: inhibition of fungal infestation. As to the method: as §1
After a cultivation period of 3 weeks, tomato plants are watered with a spray mixture (0.02% active ingredient based on the volume of the soil) prepared from a wettable powder formulation of the test compound. […] After 96 hours, the treated plants are infected with a sporangia suspension of the fungus. Fungus infestation is evaluated after incubation of the infected plants for 4 days at 90-100% relative humidity and +20° C.

Assay [3] relates to Phytophthora on potato plants. To be noted: read-out: inhibition of fungal infestation. As to the method:
(§2) D-3: Action Against Phytophthora on Potato Plants
a) Residual-Protective Action
2-3 week old potato plants (Bintje variety) are sprayed with a spray mixture (0.02% active ingredient) prepared from a wettable powder formulation of the test compound. After 48 hours, the treated plants are infected with a sporangia suspension of the fungus. Fungus infestation is evaluated after incubation of the infected plants for 4 days at 90-100% relative humidity and +20° C.

Assay [4] has as its system Phytophthora on potato plants. Conditions: soil, read-out: inhibition of fungal infestation. As to the method: as §2
2-3 week old potato plants (Bintje variety) are watered with a spray mixture (0.02% active ingredient based on the volume of the soil) prepared from a wettable powder formulation of the test compound. […] After 48 hours, the treated plants are infected with a sporangia suspension of the fungus. Fungus infestation is evaluated after incubation of the infected plants for 4 days at 90-100% relative humidity and +20° C. Fungal infestation is effectively controlled with compounds of Table 1.

Consider `CCOc1ccc(OCC(C)(NS(=O)(=O)Cc2ccccc2)C(=O)N(C)OC)cc1` (stereo not drawn) [compound 083, 3-(4-Ethoxy-phenoxy)-N-methoxy-2,N-dimethyl-2-phenylmethanesulfonylamino-propionamide], for which the inhibition at 200 ppm in assay [1] and in assay [2] was 80 to 100% throughout.
As to `CC(COc1ccc(-n2cncn2)cc1)(NS(=O)(=O)Cc1ccccc1)C(=O)O` (stereo not drawn) [compound 100, 2-Methyl-2-phenylmethanesulfonylamino-3-(4-[1,2,4]triazol-1-yl-phenoxy)-propionic Acid], the inhibition at 200 ppm in assay [1] fell in the range of 80 to 100%; in assay [2] it was 80 to 100%; in assay [3], 60 to 100%; in assay [4], 60 to 100%.
Turning to `C#CCNC(=O)C(C)(COc1ccc(OCC)cc1)NS(=O)(=O)Cc1ccccc1` (stereo not drawn) [compound 087, 3-(4-Ethoxy-phenoxy)-2-methyl-2-phenylmethanesulfonylamino-N-prop-2-ynyl-propionamide], the inhibition at 200 ppm in assay [1] is 80 to 100%; in assay [2] it was 80 to 100%; in assay [3], 60 to 100%; in assay [4] it was 60 to 100%.
In the case of `CCOc1ccc(OCC(C)(NS(=O)(=O)Cc2ccccc2)C(=O)OC)cc1` (stereo not drawn) [compound 082, 3-(4-Ethoxy-phenoxy)-2-methyl-2-phenylmethanesulfonylamino-propionic Acid Methyl Ester], the inhibition at 200 ppm in assay [1] and in assay [2] was 80 to 100% each time.
